The supplement of paper PMC10126150
Values marked as one replicate rest on one cluster of the flow cell; about a third of the high ones do not repeat.
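Further: ATP exposure 15 min at 22 °C before imaging.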

These sequences were tested on ATP (assay: switch fluorescence ratio, 500 uM ATP over buffer (Cy3 cluster intensity, sum of 5 cycles each) (fold (ratio)); higher = stronger signal-on switching upon ATP binding; sequences stand for … in TCGTCGGCAGCGTCAGATGTGTATAAGAGACAGTTTTTTTTTTTTTTTTTTTTTTTTT…TC). Conditions: aptamer strand: ATP DNA aptamer (quencher-CACCTGGGGGAGTATTGCGGAGGAAGG + anchor), 100 nM annealed; ATP concentration: 500 uM; one replicate.
Summary of the method: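 Cy3-labelled switching-strand clusters on a modified Illumina MiSeq flow-cell were annealed to 100 nM quencher-labelled ATP aptamer, imaged in selection buffer, then imaged after 15 min with 500 uM ATP at 22 °C. Five buffer/ATP cycles ran, with NaOH stripping and re-annealing between them. The fluorescence ratio is summed target-cycle over summed buffer-cycle Cy3 intensity per cluster, averaged per switch-domain sequence. Clusters outside 100-1000 RFU were excluded.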
CGGAGCAGAT was tested, and the switch fluorescence ratio was 7.18. TCTGGAGGTT gave a switch fluorescence ratio of 1.04. With TTATTCAAGC the switch fluorescence ratio was 0.985. In the case of CGCAAGTCCC, the switch fluorescence ratio is reported as 4.47. For TCGAGAGGCC, the switch fluorescence ratio was 1.55. For AGACAGTGGA, the switch fluorescence ratio was 1.03. With ATAGAACTCC the switch fluorescence ratio was 1.02. AGGTTCTCTT showed a switch fluorescence ratio of 1. For ACGCGAAGGT, the switch fluorescence ratio was 1.06. GGTTCAGTGC gave a switch fluorescence ratio of 1.04. For TATCGCTGT, the switch fluorescence ratio was 0.993. With TTAGCATACG the switch fluorescence ratio was 1.78. With GCGGGACAAA the switch fluorescence ratio was 1. With AGTGTCTCGA the switch fluorescence ratio was 1.01. CAAGCTTGGT gave a switch fluorescence ratio of 0.951. For CAGTGAGGG, the switch fluorescence ratio was 1.04. Work on TGTGATGCCT yielded a switch fluorescence ratio of 0.922. Work on GGAGCTTGTG yielded a switch fluorescence ratio of 1.01. CTCACGGTTG gave a switch fluorescence ratio of 0.971. With TGATTGACTT the switch fluorescence ratio was 1.06. Work on CCTTAAGTGA yielded a switch fluorescence ratio of 1.2. CTCGGCCAAC showed a switch fluorescence ratio of 4.56. TACCGATGTG gave a switch fluorescence ratio of 1.03. CCCTCATTCT was tested, and the switch fluorescence ratio was 1.03. In the case of ACTAAAACAG, the switch fluorescence ratio is reported as 1.08. TTTAAGCAAT was tested, and the switch fluorescence ratio was 2.43. Sequence AAGTTCCTGG has a switch fluorescence ratio of 1.07. TGGCTAATGG showed a switch fluorescence ratio of 1.03. Sequence TAAACAGTGC has a switch fluorescence ratio of 1.29. AGGATTGGCT gave a switch fluorescence ratio of 0.989. For TATCTGTACG, the switch fluorescence ratio was 1.04. For GTGGCAGTTG, the switch fluorescence ratio was 1.01. GGGCTACTAA gave a switch fluorescence ratio of 1.01. CTAGGTCTCA gave a switch fluorescence ratio of 0.987. CTACTTGAGA showed a switch fluorescence ratio of 1.01. CTGGGTCCTT gave a switch fluorescence ratio of 1.02. For CGATGAGGAA, the switch fluorescence ratio was 0.99. In the case of TTCCCCGGCC, the switch fluorescence ratio is reported as 1.53. TATAACCGGT showed a switch fluorescence ratio of 0.999. Work on GGGCCAAGAT yielded a switch fluorescence ratio of 1.08. Work on TCCGCAGGCG yielded a switch fluorescence ratio of 1.86. Work on ACTAAGTGCG yielded a switch fluorescence ratio of 1.08. For TCAAAGTATT, the switch fluorescence ratio was 0.97. With CCTCAGAAGG the switch fluorescence ratio was 1.14. With AGTACAAAGA the switch fluorescence ratio was 0.972. Sequence ACAGGGTGCC has a switch fluorescence ratio of 1.02. GTAATAAATG showed a switch fluorescence ratio of 1.02. With GGGTAACGAA the switch fluorescence ratio was 1.02. Sequence GTCAACATTA has a switch fluorescence ratio of 1.01. In the case of TGGTTAAGAA, the switch fluorescence ratio is reported as 1.02. In the case of CCGAACGATT, the switch fluorescence ratio is reported as 3.36. Work on GAGATCCTGT yielded a switch fluorescence ratio of 0.989. TTAGTGGCAT showed a switch fluorescence ratio of 0.972. In the case of CTAATATAGC, the switch fluorescence ratio is reported as 1.02. With GTCGTTTTAC the switch fluorescence ratio was 1.04. TGTTACCTCC showed a switch fluorescence ratio of 1.3. ATTAGTCGTG showed a switch fluorescence ratio of 0.984. In the case of ATTTTTCTCT, the switch fluorescence ratio is reported as 1.03. With CGTTGTTGAC the switch fluorescence ratio was 1.04. TCGCTACTTT gave a switch fluorescence ratio of 1.08. For ACGGGTAGAT, the switch fluorescence ratio was 1.02. With TTGAGTAGCC the switch fluorescence ratio was 1.03. In the case of AAGTCGTGCT, the switch fluorescence ratio is reported as 0.952. With ACCGAATCAT the switch fluorescence ratio was 0.978. In the case of TACGGCGGAT, the switch fluorescence ratio is reported as 0.986. ACTGGATCTT showed a switch fluorescence ratio of 1.05. Sequence CGGGGTTTCA has a switch fluorescence ratio of 0.975. Sequence TCCCTAGTAA has a switch fluorescence ratio of 1.26. CATAGTCCTT gave a switch fluorescence ratio of 1. Work on ATCTACCACC yielded a switch fluorescence ratio of 1.26. Sequence GGGACTTTC has a switch fluorescence ratio of 1.06. GCTAGCCTAT showed a switch fluorescence ratio of 0.975. TCGAAATGTG was tested, and the switch fluorescence ratio was 0.991. TTGGGAGCCT showed a switch fluorescence ratio of 1. CGCCATGAAA was tested, and the switch fluorescence ratio was 1.16. In the case of CACACGGCCG, the switch fluorescence ratio is reported as 0.991. In the case of ATATCGTGTA, the switch fluorescence ratio is reported as 1.02. In the case of TCCACGGCTG, the switch fluorescence ratio is reported as 0.97. For GGGCGGTGAC, the switch fluorescence ratio was 1.02. For TAAAAATTGT, the switch fluorescence ratio was 0.958. GGTTATTCTA was tested, and the switch fluorescence ratio was 0.996. TCTCAGGCTC gave a switch fluorescence ratio of 1.04. For ATGAAGTCCA, the switch fluorescence ratio was 1. With ACCGTTCCAT the switch fluorescence ratio was 1.01. With GGTTCATTCC the switch fluorescence ratio was 1.18. GTGGCTTCTT showed a switch fluorescence ratio of 1.02. Sequence AGCGAAAGTA has a switch fluorescence ratio of 1.01. ATCGCTAAGG was tested, and the switch fluorescence ratio was 0.988. TCGCAGTCTA was tested, and the switch fluorescence ratio was 1.16. Sequence TGAGGCATTA has a switch fluorescence ratio of 1.06. In the case of TGCCACTTCC, the switch fluorescence ratio is reported as 1.85. Work on TGATGAACCT yielded a switch fluorescence ratio of 1.93. AACCGCAGGG was tested, and the switch fluorescence ratio was 1.02. Sequence AGGACTCCAA has a switch fluorescence ratio of 1.04. TGCGTCCCAC was tested, and the switch fluorescence ratio was 1.03. Sequence CCTATATGTT has a switch fluorescence ratio of 1.02. For ATACCTTAGA, the switch fluorescence ratio was 1. In the case of ATAACATTGT, the switch fluorescence ratio is reported as 1.06. In the case of CTATTTAAGT, the switch fluorescence ratio is reported as 0.988. Sequence ACGTACTTTG has a switch fluorescence ratio of 1.47. CGCTTCATGT gave a switch fluorescence ratio of 1.05. Work on TACAGCTCTT yielded a switch fluorescence ratio of 0.938. AATGGTGAAA was tested, and the switch fluorescence ratio was 1.01. In the case of GAACGACATT, the switch fluorescence ratio is reported as 1. In the case of AGGATAGCAT, the switch fluorescence ratio is reported as 1.02. ACAATGTATT gave a switch fluorescence ratio of 1.02. With TCGATGTTAG the switch fluorescence ratio was 0.943. For GCCGTGGACG, the switch fluorescence ratio was 1. With CCTGGGGGT the switch fluorescence ratio was 0.98. Work on GGAATTCAGC yielded a switch fluorescence ratio of 1.02. With AAGCGATCAG the switch fluorescence ratio was 1.04. Work on CATCTATTTC yielded a switch fluorescence ratio of 1.07. For TCACGTTGAG, the switch fluorescence ratio was 1.05. CCTCCTGACT gave a switch fluorescence ratio of 2.4. In the case of CATGAGAG, the switch fluorescence ratio is reported as 0.975. Sequence GTAAGTGTGA has a switch fluorescence ratio of 1.02. Work on CCGGTATTAG yielded a switch fluorescence ratio of 1.21. Work on CGATAGGGC yielded a switch fluorescence ratio of 0.984. Work on CTAAGGACGC yielded a switch fluorescence ratio of 1.05. Sequence GGGATACGTC has a switch fluorescence ratio of 1.05. TCTCATAGCC showed a switch fluorescence ratio of 1.68. Work on AATCAGATTG yielded a switch fluorescence ratio of 0.961. ATGGCATA was tested, and the switch fluorescence ratio was 1. ACGATGGCAA was tested, and the switch fluorescence ratio was 3.25. CATGACATTC was tested, and the switch fluorescence ratio was 1.04. With CCTGTCAAGG the switch fluorescence ratio was 1.01. ACCCATGTCG was tested, and the switch fluorescence ratio was 1.1. With CTATCAGTA the switch fluorescence ratio was 1.03. GCCTATGCGC gave a switch fluorescence ratio of 0.987. Sequence CGAGAGATGG has a switch fluorescence ratio of 1.01. CGTTTTTTAC showed a switch fluorescence ratio of 1.07. Sequence TCAGTAAT has a switch fluorescence ratio of 1.66. In the case of ACCGGCGTTC, the switch fluorescence ratio is reported as 1.02. AGCCGGTACG showed a switch fluorescence ratio of 0.988. CTTGTTTTGC showed a switch fluorescence ratio of 0.992. For TGGCTTGGGA, the switch fluorescence ratio was 1.01. CGGCGACGC showed a switch fluorescence ratio of 1.01. Work on ATAGGCCCGG yielded a switch fluorescence ratio of 1.01. In the case of ATAGGTGCAA, the switch fluorescence ratio is reported as 1.05. CTTATGCAAG was tested, and the switch fluorescence ratio was 1.04. Work on TTGCCTCTCG yielded a switch fluorescence ratio of 1.03. With CGACTTTCAT the switch fluorescence ratio was 1.17. CCGAGCTTGT gave a switch fluorescence ratio of 1.67. With TGTGTGATGA the switch fluorescence ratio was 1.07. With TATTCAATG the switch fluorescence ratio was 0.984. Work on CTGTGATAGG yielded a switch fluorescence ratio of 0.964. With GATCGGCGCA the switch fluorescence ratio was 1.06. In the case of TCATAGATCC, the switch fluorescence ratio is reported as 1. ATGTATCGG was tested, and the switch fluorescence ratio was 1.02. In the case of ACCGATCGTC, the switch fluorescence ratio is reported as 1.09. For ATGACCATCG, the switch fluorescence ratio was 1.04. With GCGAGAGATG the switch fluorescence ratio was 0.99. CTTAGACACA showed a switch fluorescence ratio of 0.863. TAGGGAATAT showed a switch fluorescence ratio of 0.983. Sequence GGTCGGTTCA has a switch fluorescence ratio of 1.02. GAACGGTCAC gave a switch fluorescence ratio of 1.2. Work on TGGGAGTTCT yielded a switch fluorescence ratio of 1.02.
